In PubChem BioAssay AID588855 (National Center for Advancing Translational Sciences (NCATS), 2011):
Hit rate of the full screen: of about 410,000 compounds, about 5,000 (1.2%) were called active. Inconclusive results, whose numbers are uncertain, are shown with a selection of clear calls. Calls follow the shape of the dose curve; as a rule, active = well fitted inhibition curve with a large enough effect; inconclusive = small, poorly fitted or top-dose-only effect; inactive = no such curve, though single readings can be large or run the other way. Potencies beside an inconclusive call are fits to weak or partial responses and may not hold up.

Assay: qHTS for Inhibitors of TGF-b; also: nearly all actives have a fitted effect of over 65% in size
Conditions: HepG2 CAGA-GFP TGF-b/SMAD3 reporter, GFP fluorescence, 18 h, TGF-beta stimulated, 500 pg/mL final; series mostly up to 46.1 µM; activity, negative = inhibition: at the top concentration
Summary of the method: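 Using HEPG2 CAGA-GFP reporter cells at 1000 cells/well, we pinned test compounds, stimulated with recombinant TGF-beta (500 pg/mL final) and measured total well GFP after 18 h.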
% is scaled to controls: 0 for no effect and ±100 for the full control effect; potency is read from the fitted curve at half-maximal effect; tags tell the direction and shape of the fitted curve.

SMILES	activity, negative = inhibition	Potency
Cc1cc(NC(=O)CCN2C(=O)c3ccccc3C2=O)no1	inactive: -4.9%	
C/C=C1\COC(C(=O)NCc2cccc(OC)c2OC)(C(F)(F)F)C=C1C=C(C)C (stereo not drawn)		inconclusive: 35.5 µM [inhibitor, single point]
CN(C)c1ccc(/C=C/c2ccc3cc(F)ccc3n2)cc1	inactive: 0.327%	
C/C(Cn1nnc2ccccc21)=N\OC(=O)c1ccccc1C		inconclusive: 35.5 µM [inhibitor, single point]
COc1ccc(-c2cn(Cc3ccc(C(=O)NCc4ccc(C)cc4)cc3)c(C(C)N)n2)cc1 (stereo not drawn)		inconclusive: 12.6 µM [inhibitor, single point]
CC(C)[C@@H](N)C(=O)NC[C@H]1O[C@@H](n2cnc3c(N)ncnc32)[C@H](O)[C@@H]1O	inactive: 12.9%	
CCOC(=O)C(NC(=O)CCC(=O)Nc1ccc(S(N)(=O)=O)cc1)C(O)c1ccccc1 (stereo not drawn)		inconclusive: 0.501 µM [inhibitor, full curve, poor fit]
Cc1ccc(SCC(=O)OCC(=O)N(CC(C)C)c2c(N)n(Cc3ccccc3)c(=O)[nH]c2=O)cc1C		active: 17.8 µM
Cc1cc(C)cc(N(C(C)C(=O)N2CCCCC2)S(C)(=O)=O)c1 (stereo not drawn)		inconclusive: 35.5 µM [inhibitor, single point]
Cc1ccc(OCc2nnc(SCC(=O)c3ccccc3)n2-c2ccccc2)cc1		inconclusive: 35.5 µM [inhibitor, single point]
COc1ccc(N2CCN(Cc3nc4c(c(=O)n(C)c(=O)n4C)n3CCc3ccccc3)CC2)cc1		inconclusive: 35.5 µM [inhibitor, single point]
CC1CC(=O)N(c2ccc(NCCc3ccc(O)cc3)c([N+](=O)[O-])c2)C1=O (stereo not drawn)	inactive: -14.1%	
Cn1nnnc1SCc1ccc(C(=O)Nc2nccs2)cc1		inconclusive: 35.5 µM [inhibitor, single point]
Cc1cccnc1Nc1ncnc(N)c1[N+](=O)[O-]	inactive: -19.9%	
CCN(CC)S(=O)(=O)c1ccc(N2CCOCC2)c(NC(=O)CC23CC4CC(CC(Br)(C4)C2)C3)c1		inconclusive: 12.6 µM [inhibitor, partial curve, poor fit]
CCCc1ccc(C2Sc3ccccc3NC3=C2C(=O)c2ccccc23)cc1 (stereo not drawn)		inconclusive: 22.4 µM [inhibitor, single point]
CCOc1ccc(C(C(=O)NC2CCCC2)N(Cc2ccccc2)C(=O)c2nsc(Cl)c2Cl)cc1 (stereo not drawn)		inconclusive: 22.4 µM [inhibitor, single point]
COC(=O)N1C(=O)[C@@](Cc2ccccc2)(c2ccccc2)N1C(=O)OC		active: 7.94 µM
CC1CC2=C(NC(=S)NC2c2ccccc2F)/C(=C/c2ccccc2F)C1 (stereo not drawn)		inconclusive: 35.5 µM [inhibitor, single point]
COc1ccc(NS(=O)(=O)c2ccc(Cl)c(NC(=O)c3ccccc3F)c2)cc1		inconclusive: 35.5 µM [inhibitor, single point]
Cc1ccc(-c2noc(CCC(=O)N3CCN(c4cccc(C(F)(F)F)c4)CC3)n2)cc1		inconclusive: 35.5 µM [inhibitor, partial curve, poor fit]

SMILES	activity, negative = inhibition	Potency
OC(CN1CCCCC1)Cn1c2ccc(Cl)cc2c2cc(Cl)ccc21 (stereo not drawn)		inconclusive: 35.5 µM [inhibitor, single point]
O=C(c1ccco1)[C@@H]1[C@@H]2C(=O)N(c3ccc(F)cc3)C(=O)[C@@H]2[C@H]2C=Cc3ccccc3N21	inactive: 3.85%	
COc1ccc(N2CCN(CCNC(=O)CCN3C(=O)COc4ccccc43)CC2)cc1		inconclusive: 35.5 µM [inhibitor, single point]
CCOc1ccccc1CNS(=O)(=O)c1ccc(-c2coc(C)n2)cc1	inactive: -12.5%	
NC(=O)C1CCN(C2=C(NS(=O)(=O)c3ccc(Br)cc3)C(=O)c3ccccc3C2=O)CC1		inconclusive: 20 µM [inhibitor, single point]
Cc1cccc(C(c2sc3nc(-c4ccco4)nn3c2O)N2CCN(c3ccccc3)CC2)c1 (stereo not drawn)		inconclusive: 22.4 µM [inhibitor, single point]
O=C(NC(Cc1ccccc1)c1nc2ccccc2[nH]1)c1ccc(Cl)c([N+](=O)[O-])c1 (stereo not drawn)		inconclusive: 11.2 µM [inhibitor, partial curve, poor fit]
Cc1ccc(NC(=O)c2ccc(NC(=O)N3CCSc4nc(C)cc(C)c43)cc2)c(Cl)c1		inconclusive: 0.398 µM [inhibitor, partial curve, poor fit]
Cc1ccc(S(=O)(=O)N(CC(=O)Nc2cccc([N+](=O)[O-])c2)Cc2ccc(Cl)cc2)cc1		inconclusive: 15.8 µM [inhibitor, single point]
COc1ccc(C[C@H]2CN3C(=NC[C@@H]3Cc3ccc(O)cc3)N2CCNC(=O)c2ccc(C)c(Br)c2)cc1		inconclusive: 12.6 µM [inhibitor, partial curve, poor fit]
COc1ccc(/C=N/NC(=O)CN2CCN(Cc3ccccc3)CC2)cc1Br		inconclusive: 12.6 µM [inhibitor, single point]
O=C(NCc1cc(C(F)(F)F)ccc1F)C1CCC(=O)N(C2CCCCCC2)C1 (stereo not drawn)		inconclusive: 25.1 µM [inhibitor, single point]
CCOC(=O)C1=C(C)N(C)C(C)=C(C(=O)OCC)C1c1ccsc1		inconclusive: 14.1 µM [inhibitor, partial curve, poor fit]
COc1ccc(NC(=O)N(C)[C@H]2C[C@H]3c4[nH]c5ccc(-c6ccc7c(c6)OCO7)cc5c4CCN3C[C@H]2[C@H](C)O)cc1		inconclusive: 35.5 µM [inhibitor, single point]
COc1ccc(C(=O)Nc2cc(OC)ccc2OC)cc1		inconclusive: 22.4 µM [inhibitor, single point]
CC1CCCCN1C(=O)Cn1c(SCC(=O)N(C)c2ccccc2)nc2ccccc21 (stereo not drawn)	inactive: 4.99%	
O=C(N/N=C/C=C/c1ccccc1)c1cccc(Br)c1	inactive: -11.5%	
COc1cc(OC)cc(-c2nnc(NC(=O)CCS(=O)(=O)c3ccccc3)o2)c1	inactive: -21.7%	
COC(=O)c1ccc2nc(C3CCCCC3)c(Cc3ccccc3C(F)(F)F)n2c1		active: 22.4 µM
O=C(c1ccccc1Br)N1CCN(Cc2ccc3c(c2)OCO3)CC1		inconclusive: 11.2 µM [inhibitor, partial curve, poor fit]
CCc1ccc(C(=O)NNc2cc(Cl)ccc2Cl)cc1		inconclusive: 12.6 µM [inhibitor, partial curve]

SMILES	activity, negative = inhibition	Potency
O=C(CSc1nnc2ncccn12)Nc1cccc2ccccc12	inactive: -18%	
O=C(c1ccc(F)cc1)c1cn(Cc2ccc(F)cc2)c2cc3c(cc2c1=O)OCCO3		inconclusive: 6.31 µM [inhibitor, single point]
Cc1ccc(OCCCCn2ccnc2C)c(C)c1		inconclusive: 0.794 µM [inhibitor, full curve, poor fit]
COC(=O)c1ccccc1NC(=S)NC(=O)COc1ccccc1Cl	inactive: -2.94%	
CC(C)(C)c1cc(C2=CSC3=NCCN23)cc(C(C)(C)C)c1O		inconclusive: 15.8 µM [inhibitor, partial curve, poor fit]
COc1ccccc1C(=O)NCC(=O)NCCC(c1ccccc1)c1ccccc1	inactive: -15.5%	
CN(Cc1ccccc1)C(=O)c1cccc(NC(=O)Cc2ccc(NC(=O)C3CCN(C(=O)CCc4ccccc4)CC3)cc2)c1		inconclusive: 35.5 µM [inhibitor, single point]
C=CS(=O)(=O)N(Cc1ccccc1)[C@H](CO)CC(C)C		inactive
CS(=O)(=O)c1ccc(C(=O)CN2C(=O)NC3(CCCc4ccccc43)C2=O)cc1 (stereo not drawn)	inactive: 3.57%	
Clc1ccc(-c2nc(CSc3ccccn3)cs2)cc1	inactive: 2.77%	
CC(=O)NC(c1ccccc1)c1nc(-c2csc3ccccc23)cs1 (stereo not drawn)		inconclusive: 10 µM [inhibitor, partial curve, poor fit]
O=C(CSc1ccc(-c2ccc(Cl)cc2)nn1)N1CCCc2ccccc21		inconclusive: 28.2 µM [inhibitor, single point]
Cc1ccc(S(=O)(=O)N2CCC(=O)N(C(COCc3ccc(Cl)cc3Cl)Cc3ccccc3)CC2)cc1 (stereo not drawn)		inconclusive: 3.16 µM [inhibitor, full curve]
Cc1cc(C(=O)CNCc2ccco2)c(C)n1-c1ccc(F)cc1		inconclusive: 25.1 µM [inhibitor, single point]
Cc1nn(-c2ccccc2)c(C)c1/C=N/NC(=O)c1cc(C23CC4CC(CC(C4)C2)C3)[nH]n1		inconclusive: 35.5 µM [inhibitor, single point]
COc1ccc(NC(=O)CSCC(=O)N(C)Cc2c(F)cccc2Cl)cc1		inconclusive: 0.501 µM [inhibitor, full curve, poor fit]
O=C(NNc1ccc([N+](=O)[O-])cc1[N+](=O)[O-])C1C2CCCCC21 (stereo not drawn)		inconclusive: 35.5 µM [inhibitor, single point]
Cc1ccc(CN(Cc2ccco2)C(=O)COc2cc(C)c(Cl)c(C)c2)cc1		inconclusive: 4.47 µM [inhibitor, partial curve, poor fit]
Cc1cccc2cc(/C=N/NC(=O)c3ccccc3O)c(Cl)nc12		active: 10 µM
CC(C)C[C@H](NC(=O)c1[nH]cnc1C(=O)N[C@@H](C)C(=O)OC(C)(C)C)C(=O)OCc1ccccc1		inconclusive: 22.4 µM [inhibitor, single point]
COc1ccc(CN(C)C(=O)c2cccc(S(=O)(=O)N3CCN(c4ccccc4)CC3)c2)c(OC)c1OC		inconclusive: 11.2 µM [inhibitor, partial curve, poor fit]
